Measurements published in the RNAGym collection of RNA variant scans (doi:10.7554/elife.90254).
The source gives no read counts; variants with many changes may rest on few reads.

B1: LINE1-mini (parent)
chain: GGCAGAGCUCAACACAGCGUGGCAAAGUGGCUGUGGCUAGACUGCC

Variants of: B1
Assay: self-cleavage, relative activity (ratio to wild type); higher = more cleavage; in vitro, sequencing; the parent is a self-cleaving ribozyme

| Variant | self-cleavage |
| --- | --- |
| G22C G30U G35C U43C | 0.02 |
| A4C G22U C23A | 0.08 |
| C15G C23U G30U G44U | 0.02 |
| C8U C15U C18A C31A U38G G40U | 0.06 |
| C8G G21U G40C C46A | 0.04 |
| G2C C3A C31U | 0.05 |
| G30A G35C C45U C46U | 0 |
| A25U G30C C37G A41U | 0.05 |
| A11U C13A A14G G36U | 0.05 |
| C3A A6C G19A G27U | 0.46 |
| G5U C13G C37U C45U | 0.12 |
| G1A C15A G19A A24U | 0.06 |
| C3G U34C A39G | 0.19 |
| G2U C37A G44A | 0.02 |
| G5U C8G U34A | 0.05 |
| G30A A39U C45G | 0.04 |
| C8U C10U G21U | 0.02 |
| G21C U34C A39U | 0.01 |
| C15G C18A U34A | 0.02 |
| G29C G30C G44C | 0.09 |
| C3G G17A C42A | 0.07 |
| G5U U9A G22A | 0.08 |
| C8U C10A G27U C37U | 0.02 |
| A24U G30A C45A | 0.5 |

| Variant | self-cleavage |
| --- | --- |
| C18A A26G U28C G35U G40A | 0.02 |
| C10A C13U C23A G30U C31A U32A | 0.02 |
| C8G C18U A24U A39G | 0.05 |
| C3A C15A G17C | 0.05 |
| C3U G17A G30U | 0.12 |
| G1U C10G U20A A26C | 0.06 |
| C3G C10U A25C G30U | 0.02 |
| C10G G22C U28A U34A | 0 |
| G7U C8G C15U G30U | 0.01 |
| G1A A11U C13A C15U A16C G30A | 0.03 |
| C31U U38A C45G | 0.02 |
| C8G G27U G29U G33C | 0.01 |
| G2U U9A U20C U32G | 0.04 |
| G5U G21U G22A C23A A24U U32C | 0.05 |
| G1C G21U G30A | 0.37 |
| A4G G5A G7U G29U | 0.28 |
| C8G C18G C46U | 0.08 |
| C18A A26U G30C | 2.02 |
| G1U G19U G27C G30U U34G | 0.03 |
| A16U U34C C46G | 0.08 |
| G7C C13A G33C | 0.06 |
| A12C G33C U43G | 0 |
| C3A G5U C10U A11U A14C G22U | 0.07 |
| C3A C13G C15G U38A C46U | 0.08 |

| Variant | self-cleavage |
| --- | --- |
| G1A G5C G19C G27C G35C | 0.03 |
| C8A C10U U43A C45A | 0.05 |
| G5A C13U U38A G40A C42A | 0.01 |
| C3G U9G C13G C46G | 0.04 |
| G2A G5A G36C U38A A39C | 1.24 |
| G2A A4C A39U | 2.24 |
| G17A G21C C31A G33A | 0.05 |
| C3U G21U A25U U32A | 0.06 |
| C31U U38A A39G C46A | 0.04 |
| A11U C15U G17A G19C | 0.02 |
| C3G C10A A14U A25U A26U G30U G35C | 0.01 |
| A25G U38C A41G | 0.03 |
| A16U C23A A24G | 0.1 |
| C8U A26C U34C A39G C45A | 0.08 |
| C3G C8G A26C C31A | 0.01 |
| C3A A25U U38G C42A | 0.12 |
| G5U G7U A12U G19A A26U G27A C46G | 0.19 |
| G1C G27C C45G | 0.05 |
| A6G U38C A39C | 0.01 |
| C3A C8A G27U C31U | 0.44 |
| C13G G17A C31U U34A A39C C46U | 0.01 |
| C8A U20C C31A | 0.04 |
| A4C G30C C31A U32A | 0.24 |
| G5U A14C A26G G27A | 0.03 |

| Variant | self-cleavage |
| --- | --- |
| G7A U9A U28C | 0.1 |
| G5A C10G C18G G21C | 0.03 |
| C3A G21C G44C | 0.8 |
| G7A G40U C46U | 0.11 |
| A6G G17U C23U G36A A41U | 0.17 |
| G5C G7U G40C | 0.21 |
| A25C C31U G36C | 0.03 |
| G2U U20C C23U A24U C31A | 0.02 |
| G7U U20A G22C A26C | 0.03 |
| C3U A4C U28C U32G | 0.15 |
| C13G G22C A24C U32A U34A G36C G44A | 0.01 |
| G7C C10A C13U G30U G40C | 0.02 |
| C3U C8A G21A C23U | 2.59 |
| A4C C18G G19A | 0.04 |
| C8A C13G U34C C37G | 0.04 |
| G27U G36U A39G | 0.01 |
| G1U C3U A4U C10A C23A C42A C46U | 0.03 |
| G2U C13G G44C C46A | 0.03 |
| C3G C10A U28C | 0.11 |
| G29U U38G G44C | 0.02 |
| A6G A12C A16C C37A | 0.01 |
| G1A G17C G35C C45A | 0.02 |
| C3U C10G A12U G19U U20A G21A G36C | 0.02 |
| A4U C18G U28C | 0.05 |

| Variant | self-cleavage |
| --- | --- |
| C23U A25U C37A C42U | 0.07 |
| U9G A12U G17A G36U C37A | 0.04 |
| G1C A14U G19C U38G A39G | 0 |
| A26C G33U G36U U43G | 0 |
| G35A C37U C45U C46A | 0.03 |
| A6G U9A A11G G17A G19U A24C U32G G33C | 0.01 |
| G5C A11U G21A G27C | 0 |
| U9G G17C G22U C23A G29U U34C | 0.11 |
| G7U C8A C10A G30U U43G | 0 |
| G2C U9A G19U G22C A25C | 0.16 |
| G2C C15G A16C U32A U34G | 0.08 |
| C13A G21U G36U G44U | 0.2 |
| G5U C15U G33C | 0.07 |
| C18A G22A C23U U34A | 0.01 |
| G2C C10A C37A | 0.04 |
| G5U A16U C18G C23G C46A | 0.05 |
| U9G A12C G19U U20A A26C | 0.02 |
| U9A A26C U28G | 0.08 |
| G17U A24U C37G | 0.02 |
| A6G U9G C18U C45A | 0.01 |
| A12C G22A C31A | 0.01 |
| C8U A12U C42U | 0.58 |
| G17C G35A A41U | 0.06 |
| A4G G5C C18A U20A C31A | 0.07 |

| Variant | self-cleavage |
| --- | --- |
| G2U U38A G44A | 0.04 |
| U9G G17U G19C G21C | 0 |
| C3G G21U A24U | 0.22 |
| C8G U43A G44C | 0.03 |
| C3G A24C U38G | 0.04 |
| G17U G19A G27C U34C G35A U38C G40A G44A | 0.03 |
| C3A G5C C13A C18A A24U | 0.02 |
| G22U A26C C45A | 1.1 |
| A16G G30C C37U | 0.03 |
| G17C G33U G35U C46A | 0.05 |
| U20A A24U A25C C46G | 0.03 |
| G17A G21A G35U A39C G40A | 0.01 |
| C10G G19U G27U C45U | 0.02 |
| U9G G17U G19U G44C | 0.04 |
| G1U A4C U9A C31G G35C | 0.01 |
| A16U U20A U28C C31G | 0.02 |
| C15U G27U U28G | 0.19 |
| G7A C13U U43C | 1.42 |
| G17A U20A G29U | 0.08 |
| G2A C3G C23U G33A A41G | 0.32 |
| G5U A12C A16C C37G | 0.04 |
| G2U A14C U32C | 0.03 |
| C18G A25G G44A C46A | 0.02 |
| C8U C10A U38G | 0.03 |

| Variant | self-cleavage |
| --- | --- |
| G2U C3A G21U C42G U43C | 0.01 |
| G1C G19A A39C | 0.02 |
| G5U A14G G27C | 0.01 |
| C13U G29U U34C | 0.08 |
| G2A U9C A11U G29U | 0.01 |
| U32G A41G C42G | 0.05 |
| A11U G17A G21A U43A | 0.01 |
| G2U G21A U28A | 0.19 |
| C15A A26G G33A | 0.03 |
| C10U A12C G17U | 0 |
| C8G C10U G35C | 0.05 |
| A4G G21C U38A G40A | 0.01 |
| C8G A14C A25C C31A G40A | 0.01 |
| U9A G21U G22C U43A | 0.11 |
| C8U G35C C46U | 0.34 |
| C8U G36U C42U | 0.09 |
| G7C A26U G36C A41U | 0.2 |
| G2C C18U U28A G30A G40U | 0.04 |
| C13U C15A U28A | 0.04 |
| A4C C15G C18U G19U U20C | 0.03 |
| C10U U20C G40C | 0.03 |
| A4C A11U U43C | 0 |
| G1U C18A C42G | 0.1 |
